Laboratory results: publication PMC4813553
No constants are given. Whether binding was seen depends on the method and setting. In cells and extracts the contact can be indirect. Some entries that bind do so weakly or less than the wild type. For part of these data: Where a sequence is shown, tags or fusion partners need not be part of it.

The chains behind the UniProt entries cited, without tags or fusion partners. Residues count along the entry.
UniProt Q99962, residues 290-349: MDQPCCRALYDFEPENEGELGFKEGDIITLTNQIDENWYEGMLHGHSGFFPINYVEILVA
UniProt Q62420: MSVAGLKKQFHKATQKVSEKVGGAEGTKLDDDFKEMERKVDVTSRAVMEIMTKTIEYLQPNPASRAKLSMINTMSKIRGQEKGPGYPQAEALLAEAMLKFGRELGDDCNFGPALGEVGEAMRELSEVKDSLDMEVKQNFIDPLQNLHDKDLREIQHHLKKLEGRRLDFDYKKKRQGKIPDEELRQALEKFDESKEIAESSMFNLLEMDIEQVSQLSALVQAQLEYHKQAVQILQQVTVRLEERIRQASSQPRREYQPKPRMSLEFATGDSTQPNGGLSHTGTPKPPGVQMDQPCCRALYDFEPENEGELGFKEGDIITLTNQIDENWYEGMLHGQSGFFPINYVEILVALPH
UniProt Q9Z0R4: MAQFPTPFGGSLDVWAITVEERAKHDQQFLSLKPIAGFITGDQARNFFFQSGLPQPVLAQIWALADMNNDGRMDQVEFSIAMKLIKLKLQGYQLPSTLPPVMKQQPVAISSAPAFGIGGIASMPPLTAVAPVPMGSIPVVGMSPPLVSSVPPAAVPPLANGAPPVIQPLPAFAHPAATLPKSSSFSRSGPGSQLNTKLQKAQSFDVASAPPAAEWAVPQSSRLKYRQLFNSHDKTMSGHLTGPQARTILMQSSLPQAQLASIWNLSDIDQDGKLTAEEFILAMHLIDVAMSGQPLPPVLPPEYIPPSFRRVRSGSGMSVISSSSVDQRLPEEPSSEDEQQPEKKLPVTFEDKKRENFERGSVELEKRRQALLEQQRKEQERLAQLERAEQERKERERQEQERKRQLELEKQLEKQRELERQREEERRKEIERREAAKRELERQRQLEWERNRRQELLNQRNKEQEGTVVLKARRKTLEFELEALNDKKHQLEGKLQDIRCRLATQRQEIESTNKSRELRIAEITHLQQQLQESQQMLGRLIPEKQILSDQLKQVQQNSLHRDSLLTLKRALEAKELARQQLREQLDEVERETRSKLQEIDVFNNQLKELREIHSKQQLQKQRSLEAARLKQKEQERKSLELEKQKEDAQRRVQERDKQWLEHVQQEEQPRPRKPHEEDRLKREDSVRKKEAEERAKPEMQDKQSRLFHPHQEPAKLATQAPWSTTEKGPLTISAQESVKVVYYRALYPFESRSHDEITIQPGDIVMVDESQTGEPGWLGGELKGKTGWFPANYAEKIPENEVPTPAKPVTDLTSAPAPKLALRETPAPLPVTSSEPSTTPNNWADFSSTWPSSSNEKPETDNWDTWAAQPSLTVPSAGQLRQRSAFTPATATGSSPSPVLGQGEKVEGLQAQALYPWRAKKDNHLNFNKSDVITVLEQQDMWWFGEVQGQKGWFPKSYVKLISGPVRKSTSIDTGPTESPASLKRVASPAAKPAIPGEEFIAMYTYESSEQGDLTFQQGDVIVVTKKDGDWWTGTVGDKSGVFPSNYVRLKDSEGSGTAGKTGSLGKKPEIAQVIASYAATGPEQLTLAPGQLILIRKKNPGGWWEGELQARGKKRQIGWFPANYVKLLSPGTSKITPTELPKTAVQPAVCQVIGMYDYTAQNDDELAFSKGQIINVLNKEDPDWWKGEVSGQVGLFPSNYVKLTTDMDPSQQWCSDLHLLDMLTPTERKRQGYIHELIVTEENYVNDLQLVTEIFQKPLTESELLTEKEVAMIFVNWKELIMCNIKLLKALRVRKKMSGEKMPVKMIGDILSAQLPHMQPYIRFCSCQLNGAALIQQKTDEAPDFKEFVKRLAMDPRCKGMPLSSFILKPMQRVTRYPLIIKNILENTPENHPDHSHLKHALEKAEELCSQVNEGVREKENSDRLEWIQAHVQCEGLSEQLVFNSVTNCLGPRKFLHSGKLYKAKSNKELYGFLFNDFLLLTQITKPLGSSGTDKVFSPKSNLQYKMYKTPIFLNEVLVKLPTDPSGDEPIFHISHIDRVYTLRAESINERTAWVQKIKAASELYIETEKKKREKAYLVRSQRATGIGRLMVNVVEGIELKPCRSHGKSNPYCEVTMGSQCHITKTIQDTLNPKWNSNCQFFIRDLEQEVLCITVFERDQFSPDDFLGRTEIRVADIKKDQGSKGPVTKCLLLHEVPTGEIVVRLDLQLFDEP

How the values were obtained:
[1] = molecular target: T1, SH3 domain of Amphiphysin II, GST fusion (UniProt O00499); experiment: pull-down; GST-SH3 domains coupled to glutathione-Sepharose; columns loaded with a Triton X-100 extract of crude synaptosomal fraction (P2) from rat forebrain; bound proteins eluted with SDS and immunoblotted with anti-PRRT2 or anti-dynamin I; only the target purified
T1 sequence: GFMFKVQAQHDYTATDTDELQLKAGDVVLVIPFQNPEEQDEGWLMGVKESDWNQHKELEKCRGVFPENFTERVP

[2] = molecular target: SH3 domain of Endophilin 1, GST fusion (UniProt Q99962); experiment: as above
[3] = molecular target: Endophilin 1, endogenous in mouse brain (mouse (endogenous in mouse brain)) (UniProt Q62420); experiment: co-IP; anti-Intersectin 1 or anti-Endophilin 1 antibodies or control IgG on protein G Sepharose, incubated with total mouse brain lysate in 150 mM NaCl, 50 mM Tris-HCl pH 7.4, 2 mM EDTA, 1% Triton X-100; Western blot with anti-PRRT2
[4] = molecular target: Intersectin 1, endogenous in mouse brain (mouse (endogenous in mouse brain)) (UniProt Q9Z0R4); experiment: as above

B1: Dynamin I, endogenous in rat forebrain synaptosomes (protein, UniProt P21575 1-864)
chain: MGNRGMEDLIPLVNRLQDAFSAIGQNADLDLPQIAVVGGQSAGKSSVLENFVGRDFLPRGSGIVTRRPLVLQLVNSTTEYAEFLHCKGKKFTDFEEVRLEIEAETDRVTGTNKGISPVPINLRVYSPHVLNLTLVDLPGMTKVPVGDQPPDIEFQIRDMLMQFVTKENCLILAVSPANSDLANSDALKIAKEVDPQGQRTIGVITKLDLMDEGTDARDVLENKLLPLRRGYIGVVNRSQKDIDGKKDITAALAAERKFFLSHPSYRHLADRMGTPYLQKVLNQQLTNHIRDTLPGLRNKLQSQLLSIEKEVDEYKNFRPDDPARKTKALLQMVQQFAVDFEKRIEGSGDQIDTYELSGGARINRIFHERFPFELVKMEFDEKELRREISYAIKNIHGIRTGLFTPDLAFEATVKKQVQKLKEPSIKCVDMVVSELTSTIRKCSEKLQQYPRLREEMERIVTTHIREREGRTKEQVMLLIDIELAYMNTNHEDFIGFANAQQRSNQMNKKKTSGNQDEILVIRKGWLTINNIGIMKGGSKEYWFVLTAENLSWYKDDEEKEKKYMLSVDNLKLRDVEKGFMSSKHIFALFNTEQRNVYKDYRQLELACETQEEVDSWKASFLRAGVYPERVGDKEKASETEENGSDSFMHSMDPQLERQVETIRNLVDSYMAIVNKTVRDLMPKTIMHLMINNTKEFIFSELLANLYSCGDQNTLMEESAEQAQRRDEMLRMYHALKEALSIIGDINTTTVSTPMPPPVDDSWLQVQSVPAGRRSPTSSPTPQRRAPAVPPARPGSRGPAPGPPPAGSALGGAPPVPSRPGASPDPFGPPPQVPSRPNRAPPGVPSRSGQASPSRPESPRPPFDL
For B1, the binding [1] was “binds” and the binding [2] was “binds”.

B2: Proline-rich transmembrane protein 2 (PRRT2), endogenous in mouse brain (protein, UniProt E9PUL5 1-346)
chain: MAASSSQVSEMKGVEDSSKTQTEGPRHSEEGLGPVQVVAEIPDQPEALQPGPGITAAPVDSGPKAELAPETTETPVETPETVQATDLSLNPEEGSKASPSPSPSEARQEPASKPDVNRETAAEEGSEPQSTAPPEPTSEPAFQINTQSDPQPTSQPPPKPPLQAEPPTQEDPTTEVLTESTGEKQENGAVVPLQAGDGEEGPAPQPHSPPSTKTPPANGAPPRVLQKLVEEDRIGRAHGGHPGSPRGSLSRHPSSQLAGPGVEGGEGTQKPRDYIILAILSCFCPMWPVNIVAFAYAVMSRNSLQQGDVDGAQRLGRVAKLLSIVALVGGVLIIIASCVINLGVYK
In the case of B2, the binding [3] is reported as “no binding” and the binding [4] is reported as “binds”.

B3: Proline-rich transmembrane protein 2 (PRRT2), endogenous in rat forebrain synaptosomes (protein, UniProt D3ZFB6 1-344)
chain: MAASSSEVSEMKGVEDSSNTHSEGPRHSEEGMGPVQVVAENLDQPEALQSGPDTTAAPVDSGPKAELAPETTETPVETPETVQATDLSVNPGEDSKTCPSPKEACQEPASRPEVNREATAEQGAEQQSAAPPEPTSEQALQLNTQSDPQPTSQPPPKPPLQAEPPTQENPTTEVLTESTGEKQENGAVVPLQAGDGEEGPAPQPHSPPSTKTPPANGAPPRVLQKLVEEDRIGRAHGGHPGSPRGSLSRHPSSQLAGPGVEGGEGTQKPRDYIILAILSCFCPMWPVNIVAFAYAVMSRNSLQQGDVDGAQRLGRVAKLLSIVALVGGVLIIIASCVINLGVYK
In the case of B3, the binding [1] is reported as “binds” and the binding [2] is reported as “binds”.
